About 1,800 (2.5%) of roughly 73,000 compounds were called active. Not shown: some 13% with an inconclusive outcome. Calls come from the whole dose curve; as a rule, active = well fitted activation curve with a large enough effect; inconclusive = small, poorly fitted or top-dose-only effect; inactive = no such curve, though single readings can be large or run the other way. Only a part is listed here, and it is no random draw. Some structures have more than one record in an assay (separate samples or runs), and their calls can disagree.
Experiment: qHTS Assay for Agonists of the Thyroid Stimulating Hormone Receptor: Activators of Intracellular cAMP Concentrations in Parental HEK 293; note: nearly all actives have a fitted effect of over 55% in size; for activation: % of control where 0% means no effect
Conditions: parental HEK293 CNG cAMP sensor, membrane potential fluorescence; series mostly up to 57.1 µM; activation: at the top concentration
Procedure, shortened: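 Parental HEK 293 cells stably expressing a cAMP-gated CNG channel were loaded with membrane potential dye containing 100 uM RO 20-1724 for 60 min. Compound added for 30 min; depolarization read as fluorescence intensity at 590 nm.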
Potency is the fitted concentration of half-maximal effect.

Row | SMILES | activation | Potency
1 | CN(C)C(=O)[C@@H]1C[C@H]1[C@@H](NC(=O)OCc1ccccc1)c1ccccc1 | inactive: 12.7% | 
2 | Oc1ccc(-c2nc3ccccn3c2NCc2ccc3c(c2)OCO3)cc1 | inactive: -30.6% | 
3 | Cc1ccc(Cn2ccc(NC(=O)c3cc(-c4ccc5c(c4)OCO5)on3)n2)cc1 | inactive: -2.12% | 
4 | Clc1ccc(-c2nnc(-c3ccccc3)o2)c(Cl)c1 |  | active: 31.6 µM
5 | O=C(NCC(=O)N(Cc1ccc(F)cc1)C(C(=O)NC1CCCC1)c1ccco1)c1ccco1 (stereo not given) |  | active: 15.8 µM
6 | Nc1nonc1-c1nc2ccccc2n1CC(=O)NC1CCCC1 |  | active: 6.31 µM
7 | CCOC(=O)c1c(N)sc2c(O)c(Br)ccc12 | inactive: -33.6% | 
8 | C=C(C)C(=O)OCCCCCC | inactive: -7.59% | 
9 | CC(=O)NCCNc1nc(-c2ccc(N(C)C)cc2)nc2ccccc12 | inactive: -56.5% | 
10 | COc1cc2[nH]c3c(N4CCN(c5ccc(Cl)cc5)CC4)ncnc3c2cc1OC | inactive: -38.6% | 
11 | COc1ccc(NC(=O)N2CC3(CCN(C(=O)c4c(C)noc4C)CC3)C2)cc1 |  | active: 12.6 µM
12 | Oc1cc2c(cc1O)CN(C(=S)NCCc1ccc(Cl)cc1)CCC2 | inactive: -30.9% | 
13 | COc1ccc2c(c1)c(CC(=O)N1CCOCC1)c(C)n2C(=O)c1ccc(Cl)cc1 | inactive: 14% | 
14 | CNCCCC12CCC(c3ccccc31)c1ccccc12 | inactive: 8.12% | 
15 | Cn1c(/N=C/c2c(O)ccc3ccccc23)nc2ccccc21 | inactive: -39.6% [at 11.4 µM] | 
16 | O=C(c1cccc(F)c1)N1CCC2(CC1)CCN(c1ccncc1)CC2 |  | active: 3.98 µM
17 | OCC(CO)(CO)N=Cc1c(O)ccc2ccccc12 | inactive: -3.51% | 
18 | CCCCCCCCC | inactive: -36.5% | 

Row | SMILES | activation | Potency
19 | CCOc1ccccc1N1CCN(CC(O)COc2ccc3c(C)cc(=O)oc3c2)CC1 (stereo not given) | inactive: -35.9% | 
20 | COc1cc(NC(=O)c2ccc(Br)o2)ccc1NC(=O)C(C)C | inactive: -54.2% | 
21 | CC1(C)CC(=O)c2cc(OCC(=O)NCCN3CCCc4ccccc43)ccc2O1 | inactive: 29.2% | 
22 | CSc1ccc2[nH]c(=O)cc(C)c2c1 | inactive: 2.85% | 
23 | CC(=O)CCCCn1c(=O)c2c(ncn2C)n(C)c1=O |  | inactive
24 | Cc1ccc(-c2cc(C(F)F)n3ncc(C(=O)N4CCN(c5ccccn5)CC4)c3n2)cc1 |  | active: 31.6 µM
25 | CCCCNc1cc(C(=O)O)cc(S(N)(=O)=O)c1Oc1ccccc1 | inactive: 13.6% [at 25.6 µM] | 
26 | CCOC(=O)c1cc(C#N)c(SCc2ccc(C#N)cc2)nc1C |  | active: 31.6 µM
27 | Nc1nonc1-c1nc2ccccc2n1CC(=O)N1CCN(c2ccc(F)cc2)CC1 |  | active: 25.1 µM
28 | C[C@H]1NC(=O)NC1=O | inactive: -0.556% [at 25.6 µM] | 
29 | CC(=O)OCC1OC(C#CC(C)(C)C)C=CC1OC(C)=O (stereo not given) | inactive: 0.291% [at 11.4 µM] | 
30 | N=c1c2c(-c3ccccc3)c(-c3ccccc3)n(Cc3ccco3)c2ncn1Cc1ccco1 | inactive: -42.3% | 
31 | O=C(c1ccco1)N1CCC2(CC1)CN(c1ncccn1)C2 | inactive: -3.5% | 
32 | CCOc1c(C(N)=O)c(-c2ccccc2)c2c(=O)[nH]c3ccccc3n12 | inactive: -58.9% | 
33 | Cc1ccc(Cn2c(=N)c(C(=O)NCc3ccco3)cc3c(=O)n4ccccc4nc32)cc1 | inactive: -84.1% | 
34 | CCN(CC)CCOC(=O)c1ccc(N)cc1 | inactive: -0.289% [at 25.6 µM] | 
35 | O=S(=O)(c1ccc(OCC(O)CN2CCN(c3ccccc3Cl)CC2)cc1)N1CCOCC1 (stereo not given) | inactive: -33.3% | 

Source: PubChem BioAssay AID938 (National Center for Advancing Translational Sciences (NCATS), 2007)
